# The other results are listed elsewhere or left out. The full chains were built here from the parent and the listed change. Inactive controls read about 0.05.
# B1: TEV protease; numbered along this chain (parent)
# chain: MGESLFKGPRDYNPISSSICHLTNESDGHTTSLYGIGFGPFIITNKHLFRRNNGTLVVQSLHGVFKVKDTTTLQQHLVDGRDMIIIRMPKDFPPFPQKLKFREPQREERICLVTTNFQTKSMSSMVSDTSCTFPSGDGIFWKHWIQTKDGQCGSPLVSTRDGFIVGIHSASNFTNTNNYFTSVPKNFMELLTNQEAQQWVSGWRLNADSVLWGGHKVFMVKPEEPFQPVKEATQL
# Variants of: B1
# Test: raw area under fraction-flipped curve 0-4 h after induction (AUC4h, not background-subtracted), DNA-recorder readout of cleavage of the substrate (dimensionless); higher = more cleavage of the substrate by the protease variant
# Settings: temperature: 34 °C; time window: 0-4 h after rhamnose induction
# 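Also: Bxb1 expression induced with 0.2% (w/v) L-rhamnose at OD600 near 0.5, cultures sampled hourly, flipped fraction per protease–substrate barcode pair counted by paired-end Illumina sequencing.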
Variant,area with substrate ENCYFQS,area with substrate ENDYFQS,area with substrate ENEYFQS,area with substrate ENFYFQS,area with substrate ENGYFQS,area with substrate ENHYFQS,area with substrate ENIYFQS,area with substrate ENMYFQS,area with substrate ENQYFQS,area with substrate ENSYFQS,area with substrate ENVYFQS,area with substrate ENKYFQS,area with substrate ENNYFQS,area with substrate ENRYFQS,area with substrate ENPYFQS,area with substrate ENWYFQS,area with substrate ENTYFQS,area with substrate ENYYFQS
L156S,0.0638,0.0464,0.066,0.0627,0.0387,0.0449,0.0668,0.059,0.0576,0.0611,0.0652,–,–,–,–,–,–,–
R51K,–,0.0849,0.0574,–,0.0485,–,–,–,0.0393,0.0766,0.0768,0.0503,0.0534,0.0615,–,–,–,–
V183R,0.0557,–,–,–,–,0.0569,0.0482,–,0.0808,0.0417,0.0493,0.0673,–,–,0.0481,0.0491,–,–
N193G,0.0681,0.0779,0.0543,–,0.0576,–,–,–,0.0571,0.0417,–,–,0.0906,–,0.0697,–,0.0405,–
G162S,0.0628,–,0.0606,0.0561,0.0509,–,–,0.0637,0.0514,–,–,–,0.0584,0.0542,–,–,–,–
I19S,–,0.0609,0.0723,–,–,–,–,–,0.051,–,0.0683,–,–,–,0.0665,–,–,–
K98M,–,0.0619,0.0608,0.0834,0.0866,0.0564,0.0889,–,0.0443,0.0615,–,0.0612,0.0579,0.0704,–,0.0347,–,0.0627
V165G,0.0477,0.0668,0.0588,0.0506,0.0685,0.056,0.0811,–,0.0454,0.0951,–,0.0562,0.0471,–,–,–,0.0452,–
V67C,–,0.0741,0.0659,–,0.059,–,0.139,0.0973,0.0664,0.0488,–,–,0.0574,0.0586,–,0.0462,0.0624,0.0592
T129C,0.0805,0.0604,0.0537,0.0598,–,0.0606,0.0993,0.075,0.0611,0.0618,–,0.0591,–,0.0629,–,0.0486,0.072,0.0452
T129F,0.064,0.0625,0.0796,0.0575,–,0.0531,–,–,0.0515,0.0645,0.0849,0.0797,–,0.0604,–,–,0.0642,–
V229I,0.0598,–,0.0391,0.065,0.0512,0.0403,0.142,0.0924,–,0.0417,0.0767,–,0.0542,–,–,–,0.0579,–
G166L,–,0.0532,–,–,–,0.0505,–,0.0674,0.0547,–,0.0531,–,–,–,0.0449,–,–,–
S154F,0.0557,–,–,0.0703,–,–,0.106,–,0.0617,–,0.0628,0.0553,–,–,0.0623,–,–,–
S154M,0.0704,0.0788,–,–,0.0675,0.0577,0.0859,–,0.0647,0.0592,–,0.0673,0.0687,0.0504,0.0856,0.0288,–,–
S130D,0.0476,0.0623,0.0632,–,0.061,–,–,–,0.0497,–,0.0923,–,0.0752,0.067,0.0595,–,0.0691,–

Variant,area with substrate ENCYFQS,area with substrate ENDYFQS,area with substrate ENEYFQS,area with substrate ENFYFQS,area with substrate ENGYFQS,area with substrate ENHYFQS,area with substrate ENIYFQS,area with substrate ENMYFQS,area with substrate ENQYFQS,area with substrate ENSYFQS,area with substrate ENVYFQS,area with substrate ENKYFQS,area with substrate ENNYFQS,area with substrate ENRYFQS,area with substrate ENPYFQS,area with substrate ENWYFQS,area with substrate ENTYFQS,area with substrate ENYYFQS
S18E,0.0287,0.0573,0.0565,0.0611,0.0583,–,–,–,0.0554,0.0515,0.0636,–,0.0544,0.0526,–,0.0745,0.052,–
G39T,0.0425,–,0.0313,0.0336,0.0415,–,–,0.0511,–,0.0387,0.0458,0.0475,0.0649,0.0442,0.0467,–,–,0.0677
F180E,–,0.0477,0.056,0.0491,–,–,–,0.0587,–,0.058,–,–,–,–,–,–,–,–
D91F,0.0668,0.0594,0.0556,0.0581,0.0599,–,0.135,0.0875,0.0528,0.0661,0.0729,0.0587,–,0.0666,0.0706,–,0.0607,0.0747
V200M,–,0.0498,0.0763,0.0776,0.0925,0.0675,0.0804,0.0644,–,–,0.066,–,0.056,–,0.0485,0.0495,–,–
T174P,0.0565,0.0586,0.0627,–,–,–,–,0.0666,0.0666,–,0.0555,0.0532,0.0584,–,–,–,0.071,–
K46V,–,0.0776,–,–,0.0505,0.0639,–,–,0.0475,0.0428,–,–,0.0418,0.0574,–,0.0531,0.0064,–
N186P,–,0.0583,0.0347,–,–,0.0699,0.0602,–,–,0.0579,–,–,0.0661,–,–,–,0.0606,0.0539
S158A,–,0.0605,0.0639,–,0.0705,0.0766,0.106,–,0.0588,0.0585,0.0704,–,–,0.0657,–,0.0699,0.0686,–
N52K,0.0546,0.0651,0.0709,0.0576,0.0537,0.0651,–,–,0.057,0.0643,0.0689,0.0593,0.0592,–,–,0.0479,0.059,–
T176A,0.065,–,–,0.0784,0.0791,–,–,0.0673,0.0651,0.0658,–,–,–,0.0519,0.0728,–,–,0.0517
D69N,0.065,0.0703,–,–,0.0673,0.0463,0.0978,0.0985,0.0451,–,–,0.0628,0.0624,0.0869,–,0.0242,–,–
L33G,0.0721,0.0569,0.0669,0.0678,0.0619,0.0585,0.131,0.0711,0.0682,0.0696,0.0645,0.0666,0.0451,0.0671,–,–,0.0626,0.0675
N45C,0.0615,0.0616,0.0629,0.0468,0.0692,0.0624,–,0.056,0.0585,0.0493,0.0866,0.0465,0.0586,0.0742,0.055,0.0638,0.0641,0.0594
Q198W,0.0677,0.06,0.0568,–,0.0561,0.047,0.0688,–,0.0641,0.0677,0.0895,–,0.0602,0.0511,0.0534,0.0104,–,0.0606
Q198C,0.0632,0.0858,0.0587,0.0706,0.0627,0.0696,–,0.0426,0.062,0.117,0.0686,0.0533,0.0332,0.0594,0.0664,0.0571,0.0737,–
